# Variants at the background level are over-represented here.
# B1: TPR 5TU (parent)
# chain: GGAUCUUCUCGAUCUAACAAAAAAGACAAAUCUGCCACAAAGCUUGAGAGCAUCUUCGGAUGCAGAGGCGGCAGCCUUCGGUGGCGCGAUAGCGCCAACGUUCUCAACUAUGACACGCAAAACGCGUGCUCCGUUGAAUGGAGUUUAUCAUG
# Variants of: B1
# Assay: polymerase ribozyme fitness, log enrichment relative to wild type (log ratio); higher = more active; in vitro selection for triplet polymerase activity
# Outline: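 Input and output libraries were sequenced on Illumina after a single in vitro selection round, run in triplicate on PCR-built, transcribed mutant libraries of each subunit of a heterodimeric triplet polymerase ribozyme. Selection annealed libraries to a biotinylated primer, the partner subunit and triplets, incubated them frozen at −7 °C, then gel-excised extended constructs for streptavidin-bead capture and RT-PCR. Genotypes with ≥10 input reads and ≥1 read per output were kept. Fitness is the logarithm, taken in base 2, of genotype enrichment divided by wild-type enrichment, using inverse-variance-weighted replicate averages.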
row,Variant,polymerase ribozyme fitness (log ratio)
1,GGAUCUUCUCGAUCUAACAAAAAAAACUAAUCUGCCACAAAGCUUGAGCGCAUUUUCGGAUGCAGAGGCGGCAGCCUUGGGUGGCACGAUAGCGCCAACGUUCUCAACUAUGACACGCAAAACGCGUGCUCCGGUGAAUGGAGUUUAUCAUG,≤ -4.2
2,GGAUCUUCUCGAUCUAACAAAAAAAACUAAUCUGCCACAAAGCUUGAGAGCAUCUUCGGAUGCAGAGGCGGCAGCCUUCGGUGGCGCGAUAGCACCAACGUACUCAACUAUGACACGCAAAACGCGUGCUCCGUUGCAUGGAGUUUAUCAUG,≤ -4.2
3,GGAUCUUCUCGAUCUAACAAAAAAAACUAAUCUGCCACAAAGCUUGAGAGCAACUUGGGAUGCAGAGGCGGCGGCCUUCGGAGGCGCGAUAGGGCCAACGUUCUCAACUAUGACACGCAAAACGCGUGCUCCGAUGAAUGGAGUUUAGCAUG,≤ -4.2
4,GGAUCUUCUCGAUCUAACAAAAAAAACACAUCUGCGACAAAGCUUGAGAGCAUCUUCGGAUGCAGAGGCGGCAGCCUUCGGUGGCGCGAUAGCGCCCACGUUCUCUACUAUGACACGCAAAACGCGUGCUCCGUUGAAUGGAGUUUGUCAUG,≤ -4.2
5,GGAUCUUCUCGAUCUAACAAAAAAAACAAGUCUGCCACAAUGCUUGAGAACAUCUUCGGAUGCAGAGGCGGCAGCCUUCGGUGGCGUGAUAGCGCCAACGUUCUCAACUAUGACACGCAAAACGCGUGCUCCGUUGAAUGGAGUUUAUCAUG,≤ -4.2
6,GGAUCUUCUCGAUCUAACAAAAAAAACAAGUCUGCCAUAAAGCUUGACAGCAUCUUCGGAUGCAGAGGCGGCAGCGUUCGGUGGCGCGAUAGUGCCAACGUUCUCAACUAUGACACGCAAAACGCGUGCUCCGUUGAAUGGAGUUUAUCAUG,≤ -4.2
7,GGAUCUUCUCGAUCUAACAAAAAAAACAAAUCUGCCACAACGCUUGAGAGCAUCUUCGGAUGCAGAGGCGGCAGCCUUCGGUGGCGCGAUAGCGCCAACGUUCUCGACUAUGACACGCAAGACGCGUGCUCCGUUGGAUGGAGUUUAACAUG,≤ -4.2
8,GGAUCUUCUCGAUCUAACAAAAAAAACAAAUCUGCCACAAGGCUUGAGAGCAUCUUCGGAUGCAGAGCCGGCAGCCUUCGUUGGCGCGAUAGAGCCAACGUUCUCAACUAUGACACGCAAAACGCUUGCUCCGUUGAAUGGAGUUUAUCAAG,≤ -4.2
9,GGAUCUUCUCGAUCUAACAAAAAAAACAAAUCUGCCACAAGGCUUGAGAGCAUCAUCGGAUGCAGAGGCGGCAGCCUUCGGUGGCGCGAUAGCGCUAACGUUCUCAAUUAUGACACGCAAAACGCGUGCUCCGUUGAAUGGAGUUUAUCAUG,≤ -4.2
10,GGAUCUUCUCGAUCUAACAAAAAAAACAAAUCUGCCACAAAGCUUGGGAGCAUCUUCGAAUGCAGAGGCGGCAGCCUUCGGUAGCGCGAUUGCGCCAACGUUCUCAUCUAUGACACGCAAAUCGCGCGCUCCGUUGAAUGGAGUUUAUCAUG,≤ -4.2
11,GGAUCUUCUCGAUCUAACAAAAAAAACAAAUCUGCCACAAAGCUUGUGAGCCUCUUCGGAUGCAGAGGCGGCAGCCGUCGGUGACGCGAUAGGGCCAACGUUCUCAACUAUGACACGCAAAACGCGCGCUCCGUUGAAUGGAGUUUAUCAUG,≤ -4.2
12,GGAUCUUCUCGAUCUAACAAAAAAAACAAAUCUGCCACAAAGCUUGAGAGCAUCUUCGGAUGCGGAGGCGGCAGCCUUCGGUGUCGCGAUAGCGCCAACGUUCUCAACUUUGACACGCAAAACGCGUGCUCCGUUGAAUGGAGUUUAUCAUG,≤ -4.2
13,GGAUCUUCUCGAUCUAACAAAAAAAAUAAAUCUGCCACAAAGCUGGAGCGCAUCUUCGGAUGCAGAGGCGGCAGCCUUCGGUGGCGCGAUUGCGCCAACGGUCUCAACUAUGACACGAAAAACGCGUGCUCCGUUGAAUGGAGUUUAUCAUG,≤ -4.2
14,GGAUCUUCUCGAUCUAACAAAAAAAACAAAUGUGCCACAAAGCUUGAGGGCAUCUUCGGAUGCAGAGGCGGCAGCCUUCGCUGGCGGGAUAGCGCCAACGUUCUCAACUAUGACACGCAAAACGCGUGCUCCGUUGAAUGGAGUUUAUCAUG,≤ -4.2
15,GGAUCUUCUCGAUCUAACAAAAAAAACAAAUGUGCCACAAAGCUUGAGAGCAUCUUGGGAUGCAGAGGCGGCAGCCUUCGGUGGCGCGAUAGCGCCAACGUUCACAUCUAUGACACGCAAAACGCGUGCUCCGUUGAAUGGAGUUUAUCAUG,≤ -4.2
16,GGAUCUUCUCGAUCUAACAAAAAAAACAAAUUUGCCACAAAGCUUGAGAGCAUCUUCGGAUGCAGAGGCGGCAGACUUCGGUGGCGUGAUAGCGCCAACGUUCUGAUCUAUGACACGCUAAACGCGUGCACCGUUGGAUGGAGUUUAUCAUG,≤ -4.2
17,GGAUCUUCUCGAUCUAACAAAAAAAACAAAUCUGUCAUAAAGCUUGAGAGCAUCUUCGGAUGCAGAGGCGGCAGCCUUCGGUGGCGCGAUAAGGCCAACGUUCUCAACUAUGACACGCAAAACGCGUGCUCCGUUGAAUGGAGUUUAUCAUG,≤ -4.2
18,GGAUCUUCUCGAUCUAACAAAAAAAACAAAUCUGUCACAAAGCUUGAGAGCAUCUUCGGAUGCAGAGGCGGCAGCCUUCGGUGACGAGAUUGCGCCAACGUUCUCAACUAUGACACGUAAAACGCGUGCUCCGUUGAAUGGGGUUUAUCAUG,≤ -4.2
19,GGAUCUUCUCGAUCUAACAAAAAAAACAAAUCUGCCAUAAAGCUUGAGAGCAUCUUCGGAUGCAGAGGCGGCAGCCUUCGGUGGGGCGAUAGCGCCAACGUUCUCAACUAUGACACGCAAAACGCGUGCUCCGUUGAAUGGAGUUUAUCAUG,-4.07

row,Variant,polymerase ribozyme fitness (log ratio)
1,GGAUCUUCUCGAUCUAACAAAAAAAACAAAUCUGCCACAAAGAUUGAGAGCAUCUUCGGAUGCAGAGGCGGCAGCCUUCGGUGACGCGAUAGCGCAAACGUUCUCAACUACGACACGCUAAACGCGUGCUCCAUUGAAUGGAGUUCAUCAUG,≤ -4.2
2,GGAUCUUCUCGAUCUAACAAAAAAAACAAAUCUGCCACAAAGCUUGAGAGAAUCUUCGGAUGCAGAGGCGGCAGCCUUCGGUGGCGCGAUAGGGCCAACGUUCUCAACUAAGACACUCAAAACGCGUGCUCCGUUGAAUGGAGUUUAUCAUG,≤ -4.2
3,GGAUCUUCUCGAUCUAACAAAAAAAACAAAUCUGCCACAAAGCUUGAGAGCAUAUUCGGAUGCAGAGGCGGCAGCCUUCGGUGUCGCGAUAGCGCCAACGUUCUCAACUAUGAUGCGCAACACGCGUGCUCCGUUGAAUGGAGUGUAUCUUG,≤ -4.2
4,GGAUCUUCUCGAUCUAACAAAAAAAACAAAUCUGCCACAAAGCUUGAGAGCAUCUUAGGAUGCAGAGGCGGCAGCCUUCGGUGGAGCGAUAGCGCCAACGUUCUCAACUAUGACACGCAAAACGCGUGCUCCGUUGAAUGGAGUUUAUCAUU,≤ -4.2
5,GGAUCUUCUCGAUCUAACAAAAAAAACAAAUCUGCCACAAAGCUUGAGAGCAUCUUCGGAUGCAGAGGCGGCAGCUUUCGGUGGCGAGAUAGCGCCAACGUUCUCAACUGUGACACGCAGAACGCGUGCUCCGUUGAAUGGAGUUUAUCAUG,≤ -4.2
6,GGAUCUUCUCGAUCUAACAAAAAAAACAAAUCUGCCACAAAGCUUGAGAGCAUCUUCGGAUGCAGAGGCGGCAGCCUUGGGUGGCGCGAUAGCGCCAACGUUCUCAACUCUGUCACGCAAAACGCGUGCUCCGUUGAAUGGAGUUUAUCAUG,≤ -4.2
7,GGAUCUUCUCGAUCUAACAAAAAAAACAAAUCUGCCACAAAGCUUGAGAGCAUCUUCGGAUGCAGAGGCGGCAGCCUUCGGUGGCGACAUAACGCCAACGUUCUCAACUAUGACACGCAAAAGGCGUGCUCCGUUGAAUGGAGUUUAUCAUG,≤ -4.2
8,GGAUCUUCUCGAUCUAACAAAAAAAACAAAUCUGCCACAAAGCUUGAGAGCAUCUUCGGAUGCAGAGGCGGCAGCCUUCGGUGGCGCGAUAGUGCCAACGUUCGCAACUAUGACACGCAAAACGCGUGCUCCGUUGAAUGGAGUUUCUCAUG,≤ -4.2
9,GGAUCUUCUCGAUCUAACAAAAAAAACAAAUCUGCCACAAAGCUUGAGAGCAUCUUCGAAUGCAGAGGCGGCAGCCUUCAGUGGCGCGAUAGCGCCGACGUUCUGGACUAUGACACGCAAAACGCGGGCUCCGUUGAAUGGAGUUUAUCCUG,≤ -4.2
10,GGAUCUUCUCGAUCUAACAAAAAAAACAAAUCUGCCACAAAGCUUGAGAGCAUCUUCGGAUGCAGAGGCGGCAGCCUUCGGUGGCGCGAUAGCCCCAACGUUCUCAACUAUGCCACGCAAAACGCGUGCUCCGUUGAAUGGCGUUUAUCAUG,≤ -4.2
11,GGAUCUUCUCGAUCUAACAAAAAAAACAAAUCAGCCACAAAGCUUGAGAGCAUCUUCGGAUGCAGAGGCGGCAGCCUUCGGUCGCGCGAUUGCACCAACGUUCUCAACUAUGACACGCAAUACGCGUGCUUCGUUGAAUGGAGUUUAUCAUG,≤ -4.2
12,GGAUCUUCUCGAUCUAACAAAAAAAACAAAUCUGCCACAAAGCUUGAGAGCAACUUCGGAUGCAGAGGCGGCAGCCUUCGGUGGCGCGAUAGCGCCAACGUUCUCACCUAUGACACGCAAAACGCGUGCUCCGUGGAAUGGUGUUUAUCAUG,≤ -4.2
13,GGAUCUUCUCGAUCUAACAAAAAAAACAAAUCUGCCACAAAGCUUGAGAGCAUCAUCGGAUGCAGAGGCGGCAGCCUUCGGUGGCGCGAUAGCGCCAACGUUCUCAACUAUGACACGCAAAACGCGUGCUCCGUAGAAUGGAGUUUAUCAUG,-3.79
14,GGAUCUUCUCGAUCUAACAAAAAAAACAAAUCUGCCACAAAGCUUGAGAGCAUCUACGGAUGCAGAGGCGGCUGCCUUCGGUGGAGCGAUAGCGCCAACGUUCUCAACUAUGACACGCAAAACGCGUGCUUCGUUGAAUGGAAUUUAUCAUG,≤ -4.2
15,GGAUCUUCUCGAUCUAACAAAAAACCCAAAUCUGCCACAAAGCUUGAGAGCAUCUUCGGAUGCAGAGGCGGCAGCCUUCGGUGGCGCGAUAGCGCCAACGUUCUCAACUAUGACACGCAAAACGCGUGCUCCGUUGAAUGGAGUUUAUCAUG,-2.94
16,GGAUCUUCUCGAUCUAACAAAAAACGCAAAUCUGCCACAACGCUUGAGAGCAUCUUCGGAUGCAGAGGCGGCAGCCUUCGGUGGGGCGAUAGCGCCAACGUUCUCAACUAUGACACGCAAAACGCGUGCUGCGUUGAAUGGAGUUUAUCAUG,≤ -4.2
17,GGAUCUUCUCGAUCUAACAAAAAACGCAAAUCUGCCACAAAGCUUUAGAGCAUCUUCGGAUGCAGAGGCGGCAGCCUUCGGUGGCGCGAUCGCGCCAACGUUCUCAACUAUGACACGCAAAACGCGUGCUCCGUUGAAUGGAGUUUAUCAUG,≤ -4.2
18,GGAUCUUCUCGAUCUAACAAAAAACGCAAAUCUGCCACAAAGCUUGAGAGCAUCUUCGGAUGCAGAGGCAGCAGCCUUCGGUGGCGCGAUCGCCCCAACGUUCUCAACUAUGACACGCAAAACGCGUGCUCCGUUGAAUGGAGUUUAUCAUG,≤ -4.2
19,GGAUCUUCUCGAUCUAACAAAAAACUCAAAUCUGCCACAAAGCUUGAGAGCAUCUUCGGAUGCAGAGGCGGCAGCCUUCGGUGGCGUGAUAGCGCCAACGUUCUCAACUAUGACACGCAAAACGCGUGCUCCGUGGAAUGGGGUUUAUCAUG,≤ -4.2
